Values quoted from earlier work as cited in patent publication US11439651B2 (priority 2020, dated 2022).

## OC[C@@H](O)[C@H](O)[C@@H](O)CO [Xylitol]
  solubility in water: soluble in water
